Out of some 52,000 compounds screened, about 4,300 (8.3%) were called active. Cut-off read from the data, not from the text of the source: active = survival mostly below about 52% (no sharp cut-off); inactive = mostly above about 56%. This is one part of the list.

In the assay the test system is DeltatarO mutant. Kind of assay: S. aureus survival, RN4220 and DeltatarO strains – OD600, teichoic acid synthesis inhibitors, primary screen (AID 463173). As to conditions: S. aureus RN4220 wild type/DeltatarO growth, OD600, 18 h, hits give low values, screened at 18.75 µg/mL (by protocol).
With `COc1ccccc1N1CCN(C(=O)c2cc3c(s2)-c2ccccc2OC3)CC1`, the survival was inactive: 88%.

Consider `CCc1cccc(NC(=O)c2cc(S(=O)(=O)N3CCCCCC3)cn2C)c1`, for which the survival was inactive: 66%.

On to `CN(C)CCOC(=O)c1ccco1`, for which the survival was inactive: 94%.

For the compound `O=C1CC(c2nnc(Cc3ccc(F)cc3)o2)CN1c1ccccc1` (configuration not stated), the survival is inactive: 134%.

On to `Cc1cccc(NC(=O)CSc2cn(CC(=O)N3CCC(C)CC3)c3ccccc23)c1C`, for which the survival is inactive: 80%.

On to `Fc1ccccc1-n1ncc2c1ncn1nc(COc3ccc(Cl)cc3)nc21`, for which the survival is inactive: 83%.

For the compound `CC(=O)c1cccc(NC(=O)Cn2c(-c3cncs3)nc3ccccc32)c1`, the survival was inactive: 67%.

On to `Cc1cccc(N2CCN(S(=O)(=O)c3nnc(NC(=O)c4ccc(Cl)cc4)s3)CC2)c1`, for which the survival is inactive: 54%.

For `COc1ccc(OC)c(NC(=O)c2ccc3nc(C(C)C)oc3c2)c1`, the survival is inactive: 67%.

With `Cc1nc2nc(CNC(=O)c3cccc(F)c3)nn2c(C)c1CCC(=O)Nc1ccc(F)cc1`, the survival was inactive: 80%.

On to `Cc1ccc(S(=O)(=O)Cc2csc(N)n2)cc1`, for which the survival is inactive: 90%.

As for `COc1cc2c(cc1OC)C(COc1ccc(F)cc1)N(C(=O)C(C)C)CC2` (configuration not stated), the survival is inactive: 58%.

On to `O=c1n(Cc2ccccc2)nc2n1-c1ccccc1OC2`, for which the survival was inactive: 121%.

With `CC(C)c1cnc2c(c1SCc1ccc([N+](=O)[O-])cc1)c(=O)n(C)c(=O)n2C`, the survival is inactive: 73%.

For `CCc1ccccc1N1CC(c2nc3ccccc3n2CCCCOc2ccccc2OC)CC1=O` (configuration not stated), the survival was inactive: 80%.

Regarding `Cc1noc(Cn2c(=O)c3cc4c(cc3n(CC(=O)Nc3ccc(C(C)C)cc3)c2=O)OCO4)n1`, the survival was inactive: 67%.

For the compound `CC(C)NC(=O)Cc1csc2nc(-c3ccccc3)cn12`, the survival was inactive: 99%.

For the compound `CNS(=O)(=O)c1ccc(NC(=O)c2nc3nc(C)cc(C(F)F)n3n2)cc1`, the survival is inactive: 132%.

`COc1cccc(-c2cc(C(F)(F)F)n3nc(-c4ccc(C)cc4)cc3n2)c1`: the survival was inactive: 142%.

`CCN(c1ccccc1)S(=O)(=O)c1ccc(NC(=O)c2cc(=O)c3c(C)cc(C)cc3o2)cc1`: the survival is inactive: 80%.

In the case of `CNC(=O)C1CCC(Cn2c(=O)c3sccc3n(CC(=O)N3CCCCC3C)c2=O)CC1` (configuration not stated), the survival is inactive: 89%.

As for `Cc1cccc(-c2noc(-c3cccnc3NCc3ccccc3Cl)n2)c1`, the survival is inactive: 61%.

Take `O=S(=O)(NCC(c1ccco1)S(=O)(=O)c1ccccc1)c1cc(F)ccc1F` (configuration not stated): the survival is inactive: 94%.

Turning to `O=C(CCS(=O)(=O)c1ccc(Br)s1)Nc1c(F)cccc1F`, the survival is inactive: 128%.

Regarding `COc1ccc(S(=O)(=O)N(Cc2nc(-c3ccccc3)no2)C2CCCCC2)cc1`, the survival is inactive: 64%.

Consider `COc1cccc(N2C(=O)CC(N3CCC(C(N)=O)(N4CCCCC4)CC3)C2=O)c1` (configuration not stated), for which the survival is inactive: 84%.

As to `Fc1ccc(Nc2nc(SCc3ccc(Cl)cc3)nc3ccccc23)cc1`, the survival was inactive: 92%.

As for `Cc1ccccc1C(=O)NCC(c1ccc(N(C)C)cc1)N1CCCC1` (configuration not stated), the survival was inactive: 102%.

As to `Cc1ccc(C)c(NC(=O)CSc2nc(-c3ccccc3)c(C#N)c(=O)[nH]2)c1`, the survival was inactive: 103%.

With `Cc1ccc(CNc2nc3ccc(Cl)cc3n3cnnc23)cc1`, the survival is inactive: 90%.

In the case of `COC(=O)c1ccccc1NC(=O)C1=CC(c2ccc3c(c2)OCO3)=NS(=O)(=O)N1C`, the survival was inactive: 66%.

As to `COc1ccc(S(=O)(=O)c2c(Nc3c(C)cccc3C)sc(C(=O)c3ccc(F)cc3)c2N)cc1`, the survival is inactive: 98%.

In the case of `CCOc1ccc(CCNC(=O)c2cccc(Nc3nc4ccccc4nc3-n3nc(C)cc3C)c2)cc1OCC`, the survival was inactive: 98%.

`O=C(CC1N=C2c3ccccc3N=C(SCc3ccc(F)cc3)N2C1=O)NC1CCCCC1` (configuration not stated): the survival is inactive: 124%.

Turning to `CCOc1ccc(N(C(=O)c2ccc(Cl)cc2)S(=O)(=O)c2ccc3c(c2)n(C)c(=O)n3C)cc1`, the survival was active: 37%.

`Cc1cccc(NC(=O)Cn2c(=O)n(Cc3ccccc3)c(=O)c3sc4ccccc4c32)c1`: the survival was inactive: 141%.

For `Cc1ccc(C)c(NC(=O)CN(C)S(=O)(=O)c2cccc3cccnc23)c1`, the survival is inactive: 85%.

As for `Cc1ccc(Cl)cc1N1CCN(CCCNC(=O)Cn2ncc3c([nH]c4ccccc43)c2=O)CC1`, the survival was inactive: 102%.

As to `Cc1ccc(C(=O)Nc2ccccc2C(=O)OCc2cc(=O)n3nc(C(C)C)sc3n2)cc1`, the survival is inactive: 78%.

As to `COc1ccc(CC(=O)NCCS(=O)(=O)N2CCN(c3ccccc3F)CC2)cc1OC`, the survival is inactive: 95%.

Regarding `CCOc1ccccc1NC(=O)C1CCC(CNS(=O)(=O)c2ccc3c(c2)CCCC(=O)N3)CC1` (configuration not stated), the survival is inactive: 78%.

With `O=C(c1ccc(Cl)cc1)N1CCCC1`, the survival was inactive: 76%.

`CCN1CCc2c(sc(NC(=O)c3ccc(S(=O)(=O)N(CCOC)CCOC)cc3)c2C(N)=O)C1`: the survival was inactive: 69%.

`CN(C)CCNC(=O)c1ccc(-n2c(-c3ccccc3)cc3c2CCCCC3)cc1`: the survival was inactive: 53%.

For the compound `CCn1c(CSc2ncccn2)nnc1SCC(=O)N1CCCCC1`, the survival was inactive: 63%.

Regarding `CC(NC(=O)CN1C(=O)COc2ccc(S(=O)(=O)N3CCCCCC3)cc21)c1ccccc1` (configuration not stated), the survival was inactive: 68%.

With `Cc1ccc(Sc2c(C(=O)NCc3cccc(F)c3)[nH]c3ccccc23)cc1`, the survival is inactive: 72%.

`CC(C)Oc1ccc(CN2CCc3nc(Nc4ccc5c(c4)OCCO5)ncc3C2)cc1`: the survival was inactive: 77%.

For the compound `Cc1cccc(NC(=O)CSc2ncc(-c3ccc(Br)cc3)[nH]2)c1`, the survival was inactive: 110%.

`O=C(CSc1ccc(-c2cccs2)nn1)Nc1ccccc1`: the survival is inactive: 76%.

Take `Cc1ccc(CN(Cc2ccco2)C(=O)c2ccc(Cl)cc2Cl)cc1`: the survival was inactive: 53%.

In the case of `Cc1cccc(-c2nc(CCNC(=O)COc3ccccc3)cs2)c1`, the survival was inactive: 94%.

For the compound `COc1ccc(CC(=O)N2N=C(c3ccncc3)CC2(O)C(F)(F)F)cc1` (configuration not stated), the survival is inactive: 104%.

With `COc1ccc(-c2cc(-c3ccccc3)nc(SCC(=O)Nc3ccccc3C)c2C#N)cc1`, the survival is active: 56%.

As to `COc1cccc(CNc2nc3ccccc3c3nc(-c4cccc(C)c4)nn23)c1`, the survival is active: 31%.

Regarding `CC(=O)c1cccc(NC(=O)Nc2c(C)n(C)n(-c3ccccc3)c2=O)c1`, the survival is inactive: 128%.

Take `Cc1cccc(N2CCN(C(=O)CN3C(=O)COc4ccc(S(=O)(=O)N5CCC(C)CC5)cc43)CC2)c1C`: the survival is inactive: 75%.

Regarding `COc1ccc(C(=O)Nc2cccc(-c3cn4ccsc4n3)c2)c(OC)c1`, the survival is inactive: 70%.

Regarding `O=S(=O)(Nc1cccc(C(F)(F)F)c1)c1ccc(NS(=O)(=O)c2ccc3c(c2)OCCO3)cc1`, the survival is active: 6%.

`Cc1ccc(NC(=O)CSc2nc3ccccc3n2CC(=O)N2CCC(C)CC2)cc1C`: the survival was active: 17%.

For `CCc1nn(CC(=O)N2CCC(C)CC2)c(=O)c2cc3occc3n12`, the survival was inactive: 117%.

Turning to `CCCN(c1ccc(C(C)C)cc1)S(=O)(=O)c1ccc2c(c1)n(C)c(=O)c(=O)n2C`, the survival is inactive: 84%.

As to `Cc1csc2nc(COC(=O)c3cccc(NC(=O)c4cccc(Cl)c4)c3)cc(=O)n12`, the survival was active: 17%.

As for `COc1ccc(OC)c(NC(=O)CSC2=Nc3ccccc3C3=NC(CCC(=O)NCc4ccccc4)C(=O)N23)c1` (configuration not stated), the survival is active: 0%.

In the case of `Cc1nc2ccn(Cc3cccs3)c(=O)c2cc1C(=O)NCc1ccc(Br)cc1`, the survival is inactive: 70%.

In the case of `O=C(COc1ccc(Cl)cc1)N(Cc1ccco1)Cc1ccco1`, the survival was inactive: 45%.

With `COc1ccc(N2CCN(C(=O)CNC3CC3)CC2)cc1`, the survival is inactive: 74%.

In the case of `Cc1c(C(=O)N(C)C)sc2c1c(=O)n(-c1ccc(Cl)c(Cl)c1)c(=O)n2CC(=O)C(C)(C)C`, the survival is inactive: 93%.

`COc1ccccc1CNC(=O)CCC(=O)N1CC(C)Sc2ccccc21` (configuration not stated): the survival was inactive: 111%.

With `Cc1ccc(C(=O)c2cn(Cc3ccccc3F)c3cc4c(cc3c2=O)OCCO4)cc1`, the survival is inactive: 82%.

Take `Cc1ccc(-n2nc3c(N4CCC(C(=O)NC5CCC(C)CC5)CC4)nnc(C)c3c2C)cc1` (configuration not stated): the survival was inactive: 67%.

For the compound `CCOc1ccc(N(CC(=O)Nc2cc(OC)cc(OC)c2)S(=O)(=O)c2c(C)[nH]c(=O)[nH]c2=O)cc1`, the survival is inactive: 76%.

For the compound `CCC(=O)Oc1cc(C(C)(C)C)cc2cc(-c3nc(-c4ccc(OC)cc4OC)no3)c(=O)oc12`, the survival is inactive: 89%.

Turning to `CC1=C(C(N)=O)C(c2cccc(O)c2)n2ncnc2N1` (configuration not stated), the survival is inactive: 94%.

With `COc1ccc(Cl)cc1NC(=O)Cn1c(=O)oc2cc(S(=O)(=O)N3CCCCCC3)ccc21`, the survival is inactive: 86%.

`O=C(c1cccs1)c1cn(CCOc2ccc(Cl)cc2)c2ccccc12`: the survival is inactive: 156%.

On to `Cc1ccc2sc(N(Cc3cccnc3)C(=O)Cc3ccccc3)nc2c1C`, for which the survival is inactive: 67%.

On to `COc1ccc(CNC(=O)Cc2c(C)c3cc4c(C)coc4cc3oc2=O)cc1`, for which the survival was inactive: 78%.

`CSc1nn(CC(=O)Nc2ccccc2F)c(N)c1S(=O)(=O)c1ccccc1`: the survival is inactive: 92%.

Consider `CCC(=O)OCCN1C(=O)c2ccccc2C1=O`, for which the survival is inactive: 91%.

With `Cc1ccc(N2CCn3c2nc2c3c(=O)n(C/C=C/c3ccccc3)c(=O)n2C)cc1C`, the survival is inactive: 73%.

For the compound `CCc1ccc(NC(=O)CCc2c(C)nc3nc(-c4cc(OC)cc(OC)c4)nn3c2C)cc1`, the survival is inactive: 111%.

`Cc1ccc(CN2CCSc3ccc(C(=O)NCc4ccc(OC(C)C)cc4)cc32)cc1`: the survival is inactive: 62%.

With `COc1ccc(-c2noc(CCCC(=O)Nc3cccc(Cl)c3C)n2)cc1`, the survival was inactive: 80%.

In the case of `CCn1c2ccccc2c2nnc(N3CCN(c4cccc(Cl)c4)CC3)nc21`, the survival was inactive: 61%.

Take `COc1ccc(S(=O)(=O)N2CCC(N3CCN(Cc4ccccc4)C(=O)C3=O)CC2)cc1`: the survival was inactive: 101%.

Take `COc1ccccc1NC(=O)C1=C(C)Nc2c(C(=O)Nc3ccc(C)cc3)cnn2C1c1cccc(OC)c1OC` (configuration not stated): the survival was inactive: 55%.

The values above are taken from PubChem BioAssay AID463173 (ICCB-Longwood Screening Facility, Harvard Medical School, 2010).
